Among all 310,000 compounds or so, about 14,000 (4.5%) showed an effect of 50% or more. The effect is printed as a negative number. This is one part of the list.
The compounds below were run against human ether-à-go-go-related gene (hERG) potassium channel (human, UniProt Q12809) (assay: primary screen, population patch clamp on CHO cells stably expressing hERG).
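Note: peak tail current of the secondary pulse compared with the same well before compound.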

Sequence of human ether-à-go-go-related gene (hERG) potassium channel (Q12809 whole entry, looked up): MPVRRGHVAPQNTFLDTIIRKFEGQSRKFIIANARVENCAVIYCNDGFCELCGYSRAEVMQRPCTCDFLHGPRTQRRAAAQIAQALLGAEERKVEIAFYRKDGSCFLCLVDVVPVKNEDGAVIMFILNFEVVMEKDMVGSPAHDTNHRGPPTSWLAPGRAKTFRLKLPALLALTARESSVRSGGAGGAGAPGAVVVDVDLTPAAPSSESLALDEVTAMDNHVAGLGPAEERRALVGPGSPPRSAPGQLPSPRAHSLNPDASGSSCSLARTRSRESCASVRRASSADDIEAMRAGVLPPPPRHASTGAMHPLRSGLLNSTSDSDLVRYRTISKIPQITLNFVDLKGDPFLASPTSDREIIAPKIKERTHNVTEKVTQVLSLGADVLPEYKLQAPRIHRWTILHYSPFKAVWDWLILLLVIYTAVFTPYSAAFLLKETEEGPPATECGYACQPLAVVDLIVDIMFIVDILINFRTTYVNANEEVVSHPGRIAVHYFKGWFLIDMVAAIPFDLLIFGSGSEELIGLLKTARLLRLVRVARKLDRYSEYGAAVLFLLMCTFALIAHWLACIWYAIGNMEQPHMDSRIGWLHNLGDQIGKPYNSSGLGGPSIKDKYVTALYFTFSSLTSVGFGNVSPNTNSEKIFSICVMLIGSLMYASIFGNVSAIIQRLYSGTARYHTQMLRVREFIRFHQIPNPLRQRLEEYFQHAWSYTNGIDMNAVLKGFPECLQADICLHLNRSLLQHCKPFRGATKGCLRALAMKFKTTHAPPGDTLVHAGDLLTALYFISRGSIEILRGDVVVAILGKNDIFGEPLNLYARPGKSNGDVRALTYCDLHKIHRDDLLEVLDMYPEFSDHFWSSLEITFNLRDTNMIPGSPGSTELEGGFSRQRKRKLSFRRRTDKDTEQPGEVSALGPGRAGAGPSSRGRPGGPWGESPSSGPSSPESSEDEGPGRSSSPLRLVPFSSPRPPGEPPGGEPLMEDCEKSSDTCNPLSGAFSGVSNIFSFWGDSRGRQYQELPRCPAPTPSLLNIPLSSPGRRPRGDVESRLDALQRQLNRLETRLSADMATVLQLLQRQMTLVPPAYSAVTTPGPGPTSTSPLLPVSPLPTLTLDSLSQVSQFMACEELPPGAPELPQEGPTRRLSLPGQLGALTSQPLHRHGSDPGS

Row | SMILES | hERG current change (%, negative = inhibition) at 10uM
1 | Cc1cccc(NC(=O)CSc2nnc(-c3n[nH]c4ccccc34)o2)c1 | 16%
2 | Cn1c(=O)c(NCCc2ccccc2)c2c3c(cccc31)C(=O)c1ccccc1-2 | -0.0383%
3 | Cc1ccc(S(=O)(=O)NCc2ccc(C(=O)NCc3cccnc3)cc2)cc1 | -5.09%
4 | COC(=O)COc1cccc(NS(=O)(=O)c2cccc([N+](=O)[O-])c2)c1 | 22%
5 | CCCCNC(=O)NNC(=O)c1cc(C)on1 | 2.93%
6 | CC1CCCC(NC(=O)COC(=O)c2ccccc2Sc2ccccc2C#N)C1C (centres unmarked) | -0.899%
7 | CCn1c(-c2nn(C)cc2Cl)n[nH]c1=S | 17.9%
8 | CCCCc1ccc(S(=O)(=O)NCCc2ccncc2)cc1 | -24.3%
9 | Cc1ccc(OCC(=O)N(Cc2ccc(N(C)C)cc2)C2CCS(=O)(=O)C2)cc1 (centres unmarked) | -31.8%
10 | COc1ccc(NC(=O)Nc2ccc(C(C)C)cc2)cc1 | 7.23%
11 | CCN/C=C(\C#N)S(=O)(=O)c1ccc(Br)cc1 | -14.5%
12 | CCC(C)[C@H](N)c1nnc(SCC(=O)c2ccc(Cl)cc2)o1 (some centres unmarked) | -52.5%
13 | Cc1cc(NC(=O)c2cncc(Br)c2)ccc1NC(=O)c1cc2ccccc2o1 | 9.39%
14 | CN(C)P(=NC(=O)COc1ccc(Cl)cc1Cl)(N(C)C)N(C)C | -2.49%
15 | COC(=O)C(C)(C)ONC(=O)Nc1ccccc1[N+](=O)[O-] | 2.07%
16 | Cc1ccc(Cl)cc1Nc1nc(-c2cccnc2)cs1 | 25.6%
17 | Cc1ccc(S(C)(=O)=NC(=O)c2cc(C)on2)cc1 (centres unmarked) | 14.7%
18 | O=C(CNc1ccc(Br)cc1)Nc1cccc(S(=O)(=O)N2CCCC2)c1 | -21.5%
19 | COc1ccc(S(=O)(=O)Cc2ccc(C(=O)N3CCN(c4ccccc4)CC3)o2)cc1 | -37.6%
20 | Cn1c(=O)n(CCc2ccccc2)c(=O)c2c1nc1n2CCCN1Cc1ccccc1 | 11.1%
21 | COC(=O)Cn1c2nc3ccccc3nc2c2cccc(C)c21 | 9.86%
22 | O=C1c2ccccc2-c2onc3ccc(NCCCn4ccnc4)c1c23 | -31.7%

Row | SMILES | hERG current change (%, negative = inhibition) at 10uM
23 | COc1ccc(OC)c(S(=O)(=O)N2CCCC(C(=O)NCc3ccncc3)C2)c1 (centres unmarked) | 20.4%
24 | CCc1cc2c(-c3ccccc3)cc(=O)oc2c(CN2CCOCC2)c1O | 0.162%
25 | CCN(CC)S(=O)(=O)c1ccc2nnn(OCC(=O)Nc3cccc(C#N)c3)c2c1 | -16.9%
26 | O=C(O)CCCNS(=O)(=O)c1ccc(Br)s1 | -3.2%
27 | Cc1ncc(C23CC4CC(CC(C4)C2)C3)[nH]1 | -9.96%
28 | Cc1ccc(S(=O)(=O)NCCNC(=O)c2cc(OCC(F)(F)F)ccc2OCC(F)(F)F)cc1 | 7.92%
29 | Cc1c(CC(=O)N2CCN(C(=O)C3COc4ccccc4O3)CC2)c(=O)oc2c(C)c(O)ccc12 (centres unmarked) | -20%
30 | CCOc1ccc(C(=O)/C=C/Nc2ccc(S(=O)(=O)N=C(N)N)cc2)cc1 | 14.9%
31 | CCOc1ccc(NC(=S)N2CCC(NC(=O)c3ccco3)CC2)cc1 | -31.6%
32 | O=C(Nc1ccccc1C(=O)NCCCn1ccnc1)c1ccc(Cl)cc1Cl | -47.1%
33 | Nc1cc(=O)[nH]c(SCc2nc3ccccc3n2Cc2ccccc2)n1 | -41.1%
34 | Cc1ccc(S(=O)(=O)N2CCN(C(=O)CSc3ccc(Cl)cc3)CC2)cc1 | 17%
35 | CN(CCOc1ccccc1)CC(=O)Nc1ccc(Br)cc1F | 6.09%
36 | COc1cc(NC(=O)c2cc([N+](=O)[O-])ccc2NC(=O)CN2CCN(c3ccccn3)CC2)cc(OC)c1 | -45.3%
37 | Cc1ncc(CO)c(CNc2ccc(-c3nc4ccccc4[nH]3)cc2)c1O | 19.8%
38 | COc1cc(/C=N/n2nnnc2N)cc(Cl)c1OC | -10.5%
39 | COc1ccc(S(=O)(=O)NCCSCc2cccs2)cc1 | -33.6%
40 | COc1ccccc1OCC(=O)NCC(C)NC(=O)COc1ccccc1OC (centres unmarked) | 4.93%
41 | Cc1cccc(Nc2nc(-c3ccc(O)cc3O)cs2)n1 | 3.52%
42 | CCn1c(SCC(=O)Nc2cccc(F)c2)nnc1-c1cc2cc(Br)ccc2o1 | 19.8%
43 | COc1ccc(Br)cc1CN(C)C(=O)c1ccncc1 | -2.7%
44 | CCCOc1ccc(CSCCNC(=S)Nc2ccccc2)cc1 | 16%

From PMC4336329 (PLoS ONE, 2015)
